# Results taken from PubChem BioAssay AID903 (National Center for Advancing Translational Sciences (NCATS), 2007).
# Screen size: about 55,000 compounds; about 340 (0.62%) were called active. This list was built around the results that the source calls inconclusive (neither active nor inactive); the mix of calls is not that of the screen. The call rests on the fitted dose curve; in most records, active means well fitted cell-killing curve with a large enough effect; inconclusive means small, poorly fitted or top-dose-only effect; inactive means no such curve, though single readings can be large or run the other way. A potency beside an inconclusive call is a rough fit, not a confirmed value.
# Assay: qHTS Screen for Compounds that Selectively Target Cancer Cells with p53 Mutations: Cytotoxicity of p53 Null Cells at the Permissive Temperature; further: nearly all actives have a fitted effect of over 55% in size
# Conditions: H1299-neo p53 null cells, ATP luminescence, 24 h, 32C; series mostly up to 46.1 µM
# Description: NIH Chemical Genomics Center [NCGC] NIH Molecular Libraries Screening Centers Network [MLSCN] MLSCN Grant: 1 X01 MH079844-01 Assay Submitter (PI): Dr. SUN, YI, University of Michigan NCGC Assay Overview: Synthetic Lethal Screen for Compounds to Kill Cancer Cells with p53 Mutation. Tumor suppressor gene p53 serves as a major cellular barrier against tumorigenesis. […] The goal of this screening is to identify small molecule probes that selectively kill cancer cells with mutations in p53. This screening was carried out using two lines of H1299 lung cancer cells. The H1299-p53 A138V line express a temperature sensitive p53 mutant (p53ts) in which the mutant p53 protein (A138V) is in the mutant confirmation when grown at 39C (the nonpermissive temperature) and in the wild type conformation when grown at 32C (the permissive temperature). A H1299-neo line (p53 null) grown at both 39C and 32C were used as counter-screens to filter out false positive associated with temperature shifting. The small molecular compounds that selectively target mutant p53-containing cancer cells were selected as candidate probes for further study. A cytotoxicity assay based on the measurement of ATP contents in cells was used in this screen. Concentration-responses of all the compounds in the library collection were determined in qHTS using the cell lines and temperature conditions as above.
# NCGC Assay Protocol Summary: Both the H1299-p53A138V and H1299-neo cell lines were provided by Dr.Yi Sun, a PI at the University Michigan. The cells were maintained and cultured at 37C. The resuspended frozen cells were used to plate the cells in the 1536-well assay plates at a density of 600 cells per well in 5 ul medium. The assay plates with the cells were incubated at 37C for 16 to 30 hours before the experiments. The library compounds in DMSO solution were added to the cells in assay plates and incubated 24 hours at 39C (for mutant p53 conformation) or 32C (for normal p53 conformation as control). An ATP_lite assay kit (PerkinElmer) was used to determine the cell viability. Tomaxifen (100uM) was used as the positive control for cell killing. Data were normalized to the controls for basal activity (DMSO only) and 100% killing (100uM tamoxifen). AC50 values were determined from concentration-response data modeled with the standard Hill equation. P53 assay protocol: 1. Reagent; 5 uL H1299-p53A138V or H1299-neo cell cells/well 2. Time; overnight; 37C incubation 3. Compounds; 23 nL; 5.9 nM to 46 uM 4. Controls; 23 nL; Tamoxifen 100 uM 5. Time; 24 hr; 32C incubation 6. Reagent; 3 uL; ATP_Lite reagent 7. Time; 20 min; Room Temperature 8. Detection; Luminescence; Viewlux plate reader Keywords: p53, synthetic lethal, cancer, cell viability, cytotoxicity, H1299 cell line, luminescence, MLSMR, MLSCN, NIH Roadmap, qHTS, NCGC
# Potency means the concentration at half of the fitted maximal effect; tags describe the fitted curve by direction and shape.
row,SMILES,Potency
1,CCOC(=O)c1cccc(NC(=O)c2ccc3c(Cl)c4c(nc3c2)CCC4)c1,"inconclusive: 2 µM [cytotoxic, partial curve]"
2,CCOc1ccc2nc(C)cc(Nc3ccccc3OCC)c2c1,inactive
3,CCn1cc(CNC(=O)c2cc(-c3ccc(C)c(C)c3)nc3ccccc23)c(C)n1,"inconclusive: 10 µM [cytotoxic, partial curve]"
4,CCn1cc2nc(SCC(=O)Nc3ccc(C)cc3C)n(Cc3ccc(C)cc3)c(=O)c2n1,inactive
5,CCOC(=O)CNS(=O)(=O)c1cc(-c2nnc(Nc3cccc(O)c3)c3ccccc23)ccc1C,"inconclusive: 31.6 µM [cytotoxic, single point]"
6,CCOc1ccccc1NC(=O)c1c(NC(=O)c2ccccc2)sc2c1CCCC2,inactive
7,CCOc1ccc(CCNC(=O)Cn2nnc(-c3ccc(OC)c(OC)c3)n2)cc1OCC,"inconclusive: 15.8 µM [cytotoxic, single point]"
8,CCN(C(=O)C1CCN(S(=O)(=O)c2ccc3c(c2)CCCN3C(=O)C2CCC2)CC1)c1cccc(C)c1,"inconclusive: 6.31 µM [cytotoxic, single point]"
9,Cc1ccc(Cl)cc1NC(=O)CN(C)S(=O)(=O)c1ccc2c(c1)n(C)c(=O)c(=O)n2C,"inconclusive: 6.31 µM [cytotoxic, single point]"
10,CC1(C)CC(=O)C2=C(C1)Nc1ccccc1N=C2,"inconclusive: 35.5 µM [cytotoxic, single point]"
11,CCCN(CCC)C(=O)C1CCCN(S(=O)(=O)c2ccc3c(c2)oc(=O)n3C)C1 (centres undefined),"inconclusive: 20 µM [cytotoxic, single point]"
12,COc1ccc(-c2noc(-c3ccc(NC4CCCC4)c([N+](=O)[O-])c3)n2)cc1,"inconclusive: 2.51 µM [cytotoxic, full curve, poor fit]"
13,Cc1ccc2cc3cc(C(=O)Nc4ccc(F)cc4Cl)oc3nc2c1,"inconclusive: 4.47 µM [cytotoxic, single point]"
14,N#CCSc1nnc(CNc2ccc(F)cc2)o1,inactive
15,Cc1ccc(S(=O)(=O)NCCc2nnc3ccc(SCc4ccccc4C)nn23)cc1,inactive
16,CCc1ccc(-c2nc3ccc(Br)cc3c(C(=O)O)c2C)s1,"inconclusive: 35.5 µM [cytotoxic, single point]"
17,Cc1ccccc1CNC(=O)C1CCN(c2nnc(C)c3c(C)n(-c4ccccc4)nc23)CC1,inactive
18,Cc1nc2ccccc2n1CCCOc1ccccc1,"inconclusive: 12.6 µM [cytotoxic, partial curve]"
19,CCCCOc1ccc(C(=O)Nc2cc(C)c(OCC(=O)N3CCOCC3)c(C)c2)cc1,"inconclusive: 11.2 µM [cytotoxic, partial curve]"
